Reference: the supplement of paper PMC3334620
Over roughly 33,000 sequences, “E-score (-0.5 to 0.5)” has its median near -0.043; the highest 2% begin near 0.37. This is one part of the list.

Each sequence was assayed against T1, Upc2 (UniProt Q12151) (assay: PBM E-score (8-mer binding enrichment) (E-score (-0.5 to 0.5)); higher = stronger / more preferred TF binding; most listed sequences are background and not binding sites). Conditions: protein concentration: 200 nM; construct: GST-full length.
T1 sequence: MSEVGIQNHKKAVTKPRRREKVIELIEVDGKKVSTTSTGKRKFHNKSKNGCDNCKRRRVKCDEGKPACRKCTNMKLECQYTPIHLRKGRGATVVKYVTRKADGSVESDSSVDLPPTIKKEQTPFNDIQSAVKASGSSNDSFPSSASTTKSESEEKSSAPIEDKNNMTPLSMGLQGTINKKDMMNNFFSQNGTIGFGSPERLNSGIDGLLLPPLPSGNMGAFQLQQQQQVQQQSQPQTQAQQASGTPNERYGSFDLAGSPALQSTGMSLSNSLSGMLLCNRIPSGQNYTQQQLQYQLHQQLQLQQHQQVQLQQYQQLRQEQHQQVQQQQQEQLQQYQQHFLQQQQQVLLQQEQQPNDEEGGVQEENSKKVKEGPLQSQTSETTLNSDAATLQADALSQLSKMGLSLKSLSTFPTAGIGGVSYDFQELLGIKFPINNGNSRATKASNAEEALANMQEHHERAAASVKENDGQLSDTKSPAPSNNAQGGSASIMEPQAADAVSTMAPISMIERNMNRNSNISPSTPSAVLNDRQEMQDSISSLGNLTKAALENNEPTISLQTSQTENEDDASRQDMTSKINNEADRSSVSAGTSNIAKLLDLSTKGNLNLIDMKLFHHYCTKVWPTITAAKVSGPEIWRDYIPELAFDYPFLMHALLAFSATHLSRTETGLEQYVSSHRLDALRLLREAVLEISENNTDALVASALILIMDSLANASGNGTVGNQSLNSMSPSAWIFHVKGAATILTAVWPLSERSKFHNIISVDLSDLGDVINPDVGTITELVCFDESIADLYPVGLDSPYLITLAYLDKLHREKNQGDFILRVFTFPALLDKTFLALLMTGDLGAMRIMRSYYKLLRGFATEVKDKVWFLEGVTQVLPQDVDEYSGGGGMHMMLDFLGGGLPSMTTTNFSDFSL
Method in brief: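 Using PURExpress in vitro transcription/translation, GST-tagged yeast transcription factors were made in full-length or DNA-binding-domain form. These were applied at about 100-200 nM to double-stranded universal all-10-mer Agilent arrays, and bound protein was detected with fluorescent anti-GST. Scans were normalised with masliner before the Universal PBM Analysis Suite assigned E-scores to ungapped eight-base words pooled with their reverse complements.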

Row | Sequence | PBM E-score
1 | AAGCGTGC | -0.0801
2 | TCTTTGCA | -0.0667
3 | CATGTAGC | -0.108
4 | CCGCAGAA | -0.025
5 | ATGACCCG | -0.0623
6 | GCATACGA | 0.47
7 | ATTTATGG | 0.0293
8 | GGAACAGA | -0.303
9 | CTGCCTAA | -0.123
10 | CTCAGGTC | -0.0484
11 | GCCACCAC | -0.276
12 | CTCAACCC | -0.0986
13 | CACTTGCC | -0.222
14 | CATGACCC | -0.175
15 | ATGCCTAG | -0.264
16 | CAACCTCC | -0.217
17 | TAACGCCA | 0.127
18 | TGATTACA | -0.0104
19 | AGCTACTG | -0.0902
20 | GTCAACGA | 0.248
21 | CGACCTGC | -0.0528
22 | CAGTGTGA | -0.187

Row | Sequence | PBM E-score
23 | CGATGTGC | 0.111
24 | AGTATCCA | -0.0811
25 | ATCAAGAA | -0.0255
26 | AAGATGAA | -0.0898
27 | ACCCCTAT | -0.0296
28 | ACCATTCT | -0.122
29 | CACCCTGA | -0.259
30 | GACAGGAA | 0.0304
31 | GATGGCCA | -0.161
32 | ACTCCCAC | -0.0741
33 | GTGCGTTA | 0.0729
34 | TGATACAA | -0.162
35 | AACGAGCT | 0.438
36 | AAACCTTC | -0.136
37 | AGTGGAAG | -0.288
38 | ATGAACTG | -0.00237
39 | CCCGACTC | -0.0417
40 | GATTGTTA | 0.036
41 | CCAGTAGC | 0.028
42 | CCTCAGCG | 0.0381
43 | TAACTACA | 0.00324
44 | CAAAACAC | -0.084

Row | Sequence | PBM E-score
45 | CACCCTCC | -0.083
46 | CGATCCGA | 0.189
47 | CTGCGCAA | -0.0175
48 | CTGTATGA | -0.0678
49 | ACGTAGAG | 0.101
50 | AAACTCCA | -0.114
51 | ATACAATC | 0.133
52 | AGTGCAGA | -0.00395
53 | AACAAGTT | -0.141
54 | ACTCCTCA | -0.157
55 | AGGTCGTA | 0.451
56 | AGTACAGC | -0.156
57 | AAAACCGC | -0.0094
58 | AGATTTGC | -0.069
59 | ATCCATTA | -0.101
60 | CGCATCCG | 0.109
61 | AACGCATG | 0.172
62 | ATACATCG | -0.0482
63 | ACGACTAG | 0.234
64 | ACGGGGCG | 0.238
65 | CATGGCGC | -0.161
66 | CACGACGC | 0.0689

Row | Sequence | PBM E-score
67 | CGCCCGCC | -0.036
68 | CATTGGTA | -0.184
69 | ATGTCCTC | -0.0153
70 | GCTCTTGA | -0.305
71 | CGCCTATC | -0.0576
72 | ATCGCCAA | -0.189
73 | ACCATGCG | -0.0246
74 | GGGTCGCA | 0.192
75 | AGAGAATG | 0.0339
76 | AATAAAGT | -0.132
77 | TCTATCAA | -0.242
78 | GCTATGCC | -0.282
79 | CCCTGCTA | -0.187
80 | AGTCATGG | -0.232
81 | ACTACCAG | -0.0238
82 | CGTGTGGC | -0.132
83 | CTCACACC | -0.101
84 | ACGATAAG | 0.225
85 | AATTCTAC | -0.0273
86 | AAAAAGAG | -0.131
